Data published in PubChem BioAssay AID1347417 (National Center for Advancing Translational Sciences (NCATS), 2020).
The campaign covered roughly 120,000 compounds. About 5,300 (4.4%) were called active. Inconclusive results, whose numbers are uncertain, are shown with a selection of clear calls. The call rests on the fitted dose curve; in most records, active means well fitted inhibition curve with a large enough effect; inconclusive means small, poorly fitted or top-dose-only effect; inactive means no such curve, though single readings can be large or run the other way. Potencies beside an inconclusive call are fits to weak or partial responses and may not hold up.

Experiment: qHTS Primary assay for Inhibitors of Plasmodium falciparum Dd2 growth in vitro; further: nearly all actives have a fitted effect of over 65% in size;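 on activity, negative = inhibition: plate controls were DMSO vehicle for no effect and reference drug for full effect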
Settings: P. falciparum Dd2 growth, SYBR Green, 72 h; activity, negative = inhibition: at 28.9 µM (top of the series) unless noted; series mostly up to 28.9 µM
How it was run: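 Readout: SYBR Green fluorescence, 485 nm excitation, 535 nm emission, after ~16 h lysis at 37C. Before that, Dd2-infected red cells (2.5% hematocrit) grew 72 h with compound, 29 uM top final concentration.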
Potency means the concentration at half of the fitted maximal effect; tags describe the fitted curve by direction and shape.

Question: Which Potency does the source give for `COCCN1CCC(C(=O)N2CCn3nc(Cc4ccccc4)cc3C2)C1` (stereo unspecified) here?
Answer: Its Potency is inconclusive: 20 µM [inhibitor, partial curve, poor fit].

Question: With `CCOc1ccccc1N(C)C(=O)Cn1cnc2sc(C)c(S(=O)(=O)N3CCC(C)CC3)c2c1=O` as the compound, how does the Potency read?
Answer: The Potency was inconclusive: 17.8 µM [inhibitor, single point].

Question: Which Potency does the source give for `COc1cc(OC)c(NC(=O)COCc2cc(-c3cccs3)on2)cc1Cl` here?
Answer: Its Potency is inconclusive: 17.8 µM [inhibitor, single point].

Question: For `CN(C)Cc1nnc(C2CCCN(C(=O)c3cnn4ccccc34)C2)n1C` (stereo unspecified), which Potency is on record?
Answer: The Potency was “inactive”.

Question: For `C[C@]1(CO)[C@H]2Cc3sc(NC(=O)c4cccc(F)c4)nc3[C@@H](CC(=O)N3CCOCC3)[C@]2(C)CC[C@H]1O`, which Potency is on record?
Answer: The Potency was inconclusive: 1.58 µM [inhibitor, full curve, poor fit].

Question: With `O=C(c1ccccc1Cl)N1CCC2(CC1)Cc1ccccc1NC2=O` as the compound, how does the Potency read?
Answer: Its Potency is “inactive”.

Question: With `O=C(Nc1cccc(Cl)c1)c1c(NC(=O)C(F)(F)F)sc2c1CCCC2` as the compound, how does the Potency read?
Answer: The Potency was active: 12.6 µM.

Question: For `O=C(CC1CCOCC1)NCc1ccc(F)cc1F`, which Potency is on record?
Answer: The Potency was “inactive”.

Question: For `COC(=O)CNC(=O)c1cc(-c2cccnc2)c2nncn2n1`, which Potency is on record?
Answer: The Potency was “inactive”.

Question: With `COc1ccc(N2C(=O)CSC23CCN(C(=O)C2CCCC2)CC3)cc1` as the compound, how does the Potency read?
Answer: The Potency was “inactive”.

Question: For `O=C(Nc1ccc(Oc2ccccc2)cc1)N[C@H]1CO[C@H]2[C@@H]1OC[C@@H]2n1nnnc1Oc1ccccc1`, which Potency is on record?
Answer: Its Potency is inconclusive: 17.8 µM [inhibitor, single point].

Question: Which Potency does the source give for `O=C1OCC2(CCN([S+](=O)([O-])c3ccccc3F)C2)N1CCN1CCOCC1` (stereo unspecified) here?
Answer: The Potency was “inactive”.

Question: Which Potency does the source give for `O=C(NCc1cccc(Cl)c1)C1CCN(C(=O)c2ncn3c2COC(c2ccc(F)cc2)C3)CC1` (stereo unspecified) here?
Answer: Its Potency is “inactive”.

Question: With `COc1ccc(-c2cc(-c3ccncc3)c3cncn3c2)cn1` as the compound, how does the Potency read?
Answer: Its Potency is inconclusive: 3.16 µM [inhibitor, single point].

Question: With `Cc1ccc(CN2C(=O)OC(c3cccc(NC(=O)c4ccc(F)cc4)c3)C2C(=O)NC2CC2)cc1` (stereo unspecified) as the compound, how does the Potency read?
Answer: The Potency was inconclusive: 3.98 µM [inhibitor, single point].

Question: For `CCC(Sc1nnc(C)n2c1cc1occc12)C(=O)Nc1ccccc1F` (stereo unspecified), which Potency is on record?
Answer: Its Potency is inconclusive: 10 µM [inhibitor, single point].

Question: With `O=C(Cn1c(=O)n(Cc2ccco2)c(=O)c2oc3ccccc3c21)Nc1ccc(F)cc1F` as the compound, how does the Potency read?
Answer: Its Potency is inconclusive: 17.8 µM [inhibitor, single point].

Question: For `NC(=O)[C@H]1C[C@@H](O)[C@H](O)[C@H]2[C@@H]1SC(=Nc1ccc(Cl)cc1)N2CC1CCCCC1`, which Potency is on record?
Answer: The Potency was inconclusive: 10 µM [inhibitor, single point].

Question: For `Cc1nc2c(c(-c3ccc(O)cc3)n1)CN(Cc1cccc3ccccc13)CCC2`, which Potency is on record?
Answer: The Potency was active: 12.6 µM.

Question: Which Potency does the source give for `O=C1Cc2c(-c3ccc(Oc4ccccc4)cc3)n[nH]c2CN1Cc1ccccc1F` here?
Answer: The Potency was inconclusive: 0.794 µM [inhibitor, full curve].

Question: Which Potency does the source give for `CC(C)c1ccc(C(=O)N2CCC(OC3CCN(C)CC3)CC2)cc1` here?
Answer: The Potency was inconclusive: 11.2 µM [inhibitor, single point].

Question: With `COc1ccc(C(CNC(=O)COc2ccc(C)cc2)N2CCCCC2)cc1` (stereo unspecified) as the compound, how does the Potency read?
Answer: The Potency was inconclusive: 11.2 µM [inhibitor, partial curve, poor fit].

Question: With `COc1ccccc1NC(=O)c1c(NCc2sccc2C)sc2c1CCCCC2` as the compound, how does the Potency read?
Answer: Its Potency is active: 11.2 µM.

Question: Which Potency does the source give for `COc1ccc(CCC(=O)N2CCCC(c3nc(-c4ccccc4)no3)CCNC(=O)CC2)cc1` (stereo unspecified) here?
Answer: The Potency was inconclusive: 7.94 µM [inhibitor, partial curve, poor fit].

Question: Which Potency does the source give for `CCN1CCN(C(c2ccc(OC)cc2)c2c(O)cc(C)n(CCOC)c2=O)CC1` (stereo unspecified) here?
Answer: The Potency was “inactive”.

Question: Which Potency does the source give for `Cc1cc(C)c2oc(C(=O)N(Cc3ccc(F)cc3)C3CCS(=O)(=O)C3)cc(=O)c2c1` (stereo unspecified) here?
Answer: Its Potency is inconclusive: 11.2 µM [inhibitor, single point].

Question: Which Potency does the source give for `COc1ccccc1CCNC(=O)C1CC(c2ccccc2)CN(C(=O)C2CC2)C1` (stereo unspecified) here?
Answer: Its Potency is inconclusive: 8.91 µM [inhibitor, partial curve].

Question: For `COc1ccc(S(=O)(=O)N2CCC(c3ccncc3)CC2)cc1Cl`, which activity, negative = inhibition is on record?
Answer: Its activity, negative = inhibition is inconclusive: -56% [inhibitor] [at 0.594 µM].

Question: For `CC(C)N[C@@H]1CC[C@@H]1NC(=O)c1ccc(C(F)(F)F)cc1C(F)(F)F`, which Potency is on record?
Answer: Its Potency is “inactive”.

Question: Which Potency does the source give for `Cc1ccc(OCc2cc(C(=O)N(C)Cc3ccccn3)no2)cn1` here?
Answer: Its Potency is “inactive”.

Question: With `Cc1ccc(NC(=O)Nc2nnc(N(C)Cc3ccccc3)s2)cc1` as the compound, how does the Potency read?
Answer: The Potency was inconclusive: 11.2 µM [inhibitor, partial curve, poor fit].

Question: Which Potency does the source give for `Fc1ccc(NC(=S)N[C@H]2CO[C@H]3[C@@H]2OC[C@@H]3n2nnnc2Oc2ccc(-n3cncn3)cc2)cc1` here?
Answer: The Potency was inconclusive: 11.2 µM [inhibitor, partial curve].

Question: With `COc1ccc(C(=O)N2CCCCCCNC(=O)CC2)cc1` as the compound, how does the Potency read?
Answer: The Potency was “inactive”.

Question: With `COC(=O)c1ccc(Cl)cc1NC(=O)N1CC(C)Oc2ccccc21` (stereo unspecified) as the compound, how does the Potency read?
Answer: The Potency was “inactive”.

Question: With `COCCn1ncc(N2CCC(NC(=O)c3cc(C)cc(C)c3)CC2)cc1=O` as the compound, how does the Potency read?
Answer: The Potency was “inactive”.

Question: Which Potency does the source give for `CCN(CC)c1cc(CCC(=O)NCc2cccs2)ccn1` here?
Answer: Its Potency is inconclusive: 7.08 µM [inhibitor, partial curve].

Question: Which Potency does the source give for `Cc1nnnn1CCCN1CCc2onc(-c3ccc(C(F)(F)F)cc3)c2C1` here?
Answer: Its Potency is inconclusive: 15.8 µM [inhibitor, single point].

Question: With `CC(C)CN1C(=O)CO[C@H](c2ccc(NC(=O)c3cccc(C#N)c3)cc2)[C@H]1CO` as the compound, how does the Potency read?
Answer: Its Potency is inconclusive: 14.1 µM [inhibitor, single point].

Question: Which Potency does the source give for `COCCn1nc2n(c1=O)CCN(C(=O)c1ocnc1C)CC2` here?
Answer: Its Potency is “inactive”.

Question: Which Potency does the source give for `COc1ccc(C2C=C(c3ccccc3)Nc3nc(NC(=O)c4ccc(C)cc4)nn32)cc1` (stereo unspecified) here?
Answer: Its Potency is active: 12.6 µM.

Question: Which Potency does the source give for `Cc1ccc(Cn2c(=O)c(-c3noc(C)n3)c3n(c2=O)CCCCC3)cc1` here?
Answer: The Potency was inconclusive: 17.8 µM [inhibitor, single point].

Question: Which Potency does the source give for `O=C(c1ccoc1)N1CCCC(n2cc(-c3nc(C4CC4)no3)nn2)C1` (stereo unspecified) here?
Answer: The Potency was “inactive”.

Question: With `COc1ccc(S(=O)(=O)c2cn(C)c3cc(N4CCCCC4)c(F)cc3c2=O)cc1` as the compound, how does the Potency read?
Answer: Its Potency is active: 8.91 µM.

Question: For `CC(=O)c1ccc(N2CCN(c3nc4c(S(=O)(=O)c5ccccc5)nnn4c4ccc(Cl)cc34)CC2)cc1`, which Potency is on record?
Answer: Its Potency is inconclusive: 1.12 µM [inhibitor, partial curve].

Question: Which Potency does the source give for `CC(CC(=O)NCc1ccc(Cl)cc1)CC1=NS(=O)(=O)c2ccccc2N1` (stereo unspecified) here?
Answer: Its Potency is inconclusive: 15.8 µM [inhibitor, single point].

Question: Which Potency does the source give for `COC[C@H]1C[C@@H](NCc2cccc3c2OCO3)[C@H](O)[C@@H]1O` here?
Answer: The Potency was inconclusive: 6.31 µM [inhibitor, partial curve, poor fit].

Question: Which activity, negative = inhibition does the source give for `COc1ccc(N2CCN(CCCNC(=O)C3COc4ccc(OC)cc4C3)CC2)cc1` (stereo unspecified) here?
Answer: Its activity, negative = inhibition is inactive: 39.2% [at 5.79 µM].

Question: Which Potency does the source give for `CN1CCN(CCCNC(=O)Cn2c(-c3cccs3)cc3ccccc32)CC1` here?
Answer: Its Potency is inconclusive: 5.01 µM [inhibitor, partial curve].

Question: For `Fc1cccc(-n2cc(CN3CC[C@H]4CC[C@@H](C3)N4)cn2)c1`, which Potency is on record?
Answer: The Potency was inconclusive: 10 µM [inhibitor, single point].

Question: With `COc1cccc(CN2CCCC(O)(CN3CCC(C)CC3)C2=O)c1` (stereo unspecified) as the compound, how does the Potency read?
Answer: The Potency was inconclusive: 17.8 µM [inhibitor, single point].

Question: With `O=C(NCc1nc(-c2cccc(F)c2)c(-c2ccccn2)[nH]1)C1CCOC1` (stereo unspecified) as the compound, how does the Potency read?
Answer: The Potency was “inactive”.

Question: For `Cc1ccccc1CN1CC[C@H](c2nnc(-c3ccc(N(C)C)cc3)o2)C1`, which Potency is on record?
Answer: The Potency was inconclusive: 8.91 µM [inhibitor, partial curve].

Question: For `Cc1ccc(S(=O)(=O)N2CCN(C3CCN(CCc4ccccc4)C3=O)CC2)cc1C` (stereo unspecified), which Potency is on record?
Answer: Its Potency is inconclusive: 1.26 µM [inhibitor, partial curve, poor fit].

Question: For `CCn1nccc1-c1nc(-c2nnn3c2COC(c2ccc(C)cc2)C3)no1` (stereo unspecified), which Potency is on record?
Answer: Its Potency is “inactive”.

Question: Which Potency does the source give for `CCOC(=O)C1(Cc2ccccc2C)CCCNC1` (stereo unspecified) here?
Answer: The Potency was inconclusive: 3.55 µM [inhibitor, full curve].

Question: With `Cn1ncc(N2CCOC(CCNc3nc4ccccc4s3)C2)cc1=O` (stereo unspecified) as the compound, how does the Potency read?
Answer: Its Potency is inconclusive: 17.8 µM [inhibitor, single point].

Question: Which Potency does the source give for `O=C1NCCCCCCN(Cc2ccncc2)[C@@H]2CN(Cc3ccncc3F)CC[C@H]12` here?
Answer: The Potency was inconclusive: 3.98 µM [inhibitor, full curve, poor fit].

Question: Which Potency does the source give for `O=C(NCCC1CCN(C(=O)Nc2ccc(F)cc2)CC1)c1ccccc1F` here?
Answer: The Potency was “inactive”.

Question: For `Cc1cccc2nc(-c3cccnc3)c(Nc3ccc(C(C)C)cc3)n12`, which Potency is on record?
Answer: Its Potency is inconclusive: 17.8 µM [inhibitor, single point].

Question: With `Oc1ccc(-c2nc(C3CC3)nc3c2CN(Cc2ccccc2)CC3)cc1` as the compound, how does the Potency read?
Answer: The Potency was inconclusive: 7.94 µM [inhibitor, partial curve, poor fit].

Question: With `O=C(Cc1c[nH]c2ccccc12)N1CCC(N2C(=O)C(O)C23CCCCC3)CC1` (stereo unspecified) as the compound, how does the Potency read?
Answer: The Potency was inconclusive: 12.6 µM [inhibitor, single point].

Question: With `CN(Cc1ccccc1)C(=O)C[C@@H]1c2nc(NC(=O)c3ccc(F)cc3)sc2C[C@@H]2[C@](C)(CO)[C@H](O)CC[C@]21C` as the compound, how does the Potency read?
Answer: The Potency was inconclusive: 1.41 µM [inhibitor, partial curve, poor fit].

Question: For `O=C(NC1CC(=O)N(c2ccccc2)C1)C1CCCCC1` (stereo unspecified), which Potency is on record?
Answer: The Potency was “inactive”.

Question: Which Potency does the source give for `CCN1CCN(CCCNC(=O)c2cn3ccnc(-c4ccc(C)cc4)c3n2)CC1` here?
Answer: The Potency was inconclusive: 10 µM [inhibitor, partial curve, poor fit].

Question: Which Potency does the source give for `Cc1cccn2c(=O)c(/C=C(\C#N)c3nc4ccccc4n3C)c(Oc3ccc(Br)cc3)nc12` here?
Answer: Its Potency is inconclusive: 1.41 µM [inhibitor, single point].

Question: For `COc1cccc(NC(=O)Cn2ccn3nc4c(c3c2=O)CCCCC4)c1`, which Potency is on record?
Answer: Its Potency is “inactive”.
